Test results as given in PubChem BioAssay AID720708 (National Center for Advancing Translational Sciences (NCATS), 2013).
Out of some 360,000 compounds screened, about 660 (0.18%) were called active. Inconclusive results, whose numbers are uncertain, are shown with a selection of clear calls. Calls come from the whole dose curve; as a rule, active = well fitted inhibition curve with a large enough effect; inconclusive = small, poorly fitted or top-dose-only effect; inactive = no such curve, though single readings can be large or run the other way. Potencies of inconclusive entries are left out as doubtful fits.
% is set by controls: 0 for no effect and ±100 for the full control effect; potency is the fitted concentration of half-maximal effect; tags give direction and shape of the fitted curve.
Note: nearly all actives have a fitted effect of over 45% in size.

The molecules below were run against Rap guanine nucleotide exchange factor 4 (Homo sapiens) (UniProt Q8WZA2) (assay: qHTS for Antagonist of cAMP-regulated guanine nucleotide exchange factor 2 (EPAC2): primary screen). Conditions: EPAC2 GEF exchange of Rap1B-BODIPY-GDP, fluorescence; activity, negative = inhibition: at 114 µM (top of the series) unless noted.
UniProt Q8WZA2, sequence (Q8WZA2 whole entry, looked up): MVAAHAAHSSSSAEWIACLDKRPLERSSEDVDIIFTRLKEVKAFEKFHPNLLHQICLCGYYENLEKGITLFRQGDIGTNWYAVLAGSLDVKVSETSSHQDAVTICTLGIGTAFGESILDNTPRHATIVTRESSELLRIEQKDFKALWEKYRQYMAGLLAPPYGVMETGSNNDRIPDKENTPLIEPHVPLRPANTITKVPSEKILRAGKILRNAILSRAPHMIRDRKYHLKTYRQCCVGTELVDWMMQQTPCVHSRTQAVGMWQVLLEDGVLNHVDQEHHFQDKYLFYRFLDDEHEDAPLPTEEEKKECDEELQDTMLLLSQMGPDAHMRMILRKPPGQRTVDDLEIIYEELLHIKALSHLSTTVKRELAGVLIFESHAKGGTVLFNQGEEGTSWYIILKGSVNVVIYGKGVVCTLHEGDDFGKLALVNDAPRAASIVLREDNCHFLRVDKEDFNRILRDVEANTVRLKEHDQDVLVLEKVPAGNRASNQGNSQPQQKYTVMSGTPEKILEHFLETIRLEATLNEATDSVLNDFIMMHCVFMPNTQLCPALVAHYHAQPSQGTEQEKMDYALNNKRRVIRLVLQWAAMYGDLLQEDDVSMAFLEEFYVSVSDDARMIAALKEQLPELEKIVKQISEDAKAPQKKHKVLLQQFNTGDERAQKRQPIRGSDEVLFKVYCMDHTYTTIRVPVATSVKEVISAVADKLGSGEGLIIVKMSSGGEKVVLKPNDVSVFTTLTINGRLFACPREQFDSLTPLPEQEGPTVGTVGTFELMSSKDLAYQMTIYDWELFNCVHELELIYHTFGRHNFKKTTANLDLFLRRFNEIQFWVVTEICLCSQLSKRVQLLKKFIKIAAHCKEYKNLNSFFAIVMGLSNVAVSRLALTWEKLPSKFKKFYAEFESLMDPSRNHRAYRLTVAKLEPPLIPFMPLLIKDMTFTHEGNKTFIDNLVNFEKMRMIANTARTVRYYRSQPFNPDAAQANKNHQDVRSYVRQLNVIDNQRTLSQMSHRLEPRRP
In the case of `COc1ccc2sc(NCc3ccccc3)nc2c1`, the “activity, negative = inhibition” value is reported as inactive: 0.269%.
For `O=C(c1ccc2nc(N3CCOCC3)sc2c1)N1CCC(Cc2ccccc2)CC1`, the Potency was inconclusive [inhibitor, partial curve].
With `COC(=O)c1ccc2nc(-c3cccc(Br)c3)c(CC3CCCCC3)n2c1` the Potency was inconclusive [inhibitor, full curve].
In the case of `CN1CCN(C(=O)c2ccc(-c3ccc(F)c(F)c3)c3ccoc23)CC1`, the “activity, negative = inhibition” value is reported as inactive: 8.54%.
For `Cc1ccc(C)[n+](CC(=O)c2ccc(-c3ccccc3)cc2)c1`, the Potency was inconclusive [inhibitor, full curve, poor fit].
`CCOC(=O)Cn1c2ccc(OC)cc2c2nc3ccccc3nc21` was tested, and the “activity, negative = inhibition” value was inactive: 1.08%.
For `COC(=O)c1ccc(COc2ccc(C)cc2[N+](=O)[O-])o1`, the Potency was inconclusive [inhibitor, partial curve, poor fit].
In the case of `COc1ccc(-c2sc3cc(OC)c(OC)cc3c2C#CCO)cc1`, the Potency is reported as inconclusive [inhibitor, full curve].
`CCC1CCCCN1CCNC(=O)CNS(=O)(=O)c1ccc2nc(C)sc2c1` (configuration not stated) was tested, and the Potency was inconclusive [inhibitor, single point].
In the case of `COc1ccc(C(=O)NCCc2cccc(Cl)c2)cc1OC1CCN(C(C)=O)CC1`, the Potency is reported as inconclusive [inhibitor, single point].
`CCCCCCOC(=O)c1ccc(N)cc1` was tested, and the Potency was inconclusive [inhibitor, partial curve].
`CN(/N=C/c1cc(Cl)cc(Cl)c1O)C(=S)NC(C)(C)C` was tested, and the Potency was inconclusive [inhibitor, partial curve].
For `O=C1C=CC(c2ccccc2)(c2ccccc2)CC1`, the Potency was active: 44.7 µM.
For `CSCCC(NS(=O)(=O)c1ccc(Cl)cc1)C(=O)N1CCN(c2ccccc2)CC1` (configuration not stated), the “activity, negative = inhibition” value was inactive: 0.227%.
For `COCOCCn1cc(CN2CCS(=O)(=O)N(Cc3ccc(-c4ccccc4)cc3)C(CC(C)C)C2=O)nn1` (configuration not stated), the Potency was active: 10 µM.
`Cc1ccc2nc(-c3ccccc3)c(Cc3ccccc3C(F)(F)F)n2c1` was tested, and the Potency was inconclusive [inhibitor, single point].
In the case of `COC(=O)C1(C)CCCC2(C)C3CCC(C(C)C)C(CO)C3C(CO)CC12` (configuration not stated), the Potency is reported as inconclusive [inhibitor, partial curve].
In the case of `Cc1cc(C)c(NS(=O)(=O)c2ccccc2)c(C)c1NS(=O)(=O)c1ccccc1`, the Potency is reported as inconclusive [inhibitor, partial curve].
With `COc1cccc(C(O)c2ncc(-c3cccc4ccccc34)[nH]2)c1` (configuration not stated) the “activity, negative = inhibition” value was inactive: 13.1%.
For `Cc1cc(C(C)(C)CC(C)(C)C)ccc1OCCOCC[N+](C)(C)Cc1ccccc1`, the Potency was inconclusive [inhibitor, full curve, poor fit].
With `CC1CCN(C(=O)c2ccc(-c3ccccc3Cl)o2)CC1` the Potency was inconclusive [inhibitor, partial curve].
In the case of `CCC(C)[C@H]1COCCS(=O)(=O)N1Cc1ccc(C)cc1` (some centres not stated), the Potency is reported as inconclusive [inhibitor, partial curve].
With `CCOC(=O)C1CCN(C(=O)c2ccc3c(=O)n4nc(Nc5cc(C)ccc5C)sc4nc3c2)CC1` the “activity, negative = inhibition” value was inactive: -18.7%.
`Cc1ccc(C(=O)C=Cc2ccc3c(c2)OCO3)c(C)c1` was tested, and the Potency was inconclusive [inhibitor, full curve].
In the case of `O=C(O)CSc1cc(NS(=O)(=O)c2ccc(Br)cc2)c2ccccc2c1O`, the Potency is reported as inconclusive [inhibitor, partial curve].
In the case of `CCn1cc(SCC(=O)NCc2ccc3c(c2)OCO3)c2ccccc21`, the Potency is reported as inconclusive [inhibitor, partial curve].
`CCOC(=O)C1=C(C)Nc2nc(SCC)[nH]c(=O)c2C1c1ccncc1` (configuration not stated) was tested, and the “activity, negative = inhibition” value was inactive: -17.5%.
With `CC1=C(C(=O)OCc2ccccc2)C(c2ccccc2OS(=O)(=O)c2ccc([N+](=O)[O-])cc2)NC(=O)N1CCCC(=O)O` (configuration not stated) the Potency was inconclusive [inhibitor, partial curve].
In the case of `O=C(CSc1nnc(-c2ccc(OC(F)F)cc2)o1)N1CCOCC1`, the “activity, negative = inhibition” value is reported as inactive: 7.08%.
In the case of `O=C(Nc1cccnc1)c1sc(Nc2ccccc2)nc1-c1ccccc1`, the Potency is reported as inconclusive [inhibitor, partial curve].
In the case of `Cc1cc2occ(CC(=O)N(C)CC(=O)Nc3cccc(F)c3)c2cc1C`, the Potency is reported as inconclusive [inhibitor, single point].
In the case of `COc1cc(/C=C2\C(=N)N3N=C(S(C)(=O)=O)SC3=NC2=O)cc(OC)c1OCCOc1ccccc1C`, the Potency is reported as inconclusive [inhibitor, single point].
In the case of `C/C(=C\C(=O)c1ccccc1)NNc1nc2ccccc2s1`, the Potency is reported as inconclusive [inhibitor, single point].
With `O=C(O)C1Cc2ccccc2CN1C(=O)COc1ccc(Br)cc1` (configuration not stated) the “activity, negative = inhibition” value was inactive: 7.74%.
`O=C(O)c1ccccc1Nc1ccc([N+](=O)[O-])c2nonc12` was tested, and the Potency was inconclusive [inhibitor, partial curve].
With `N=c1c(S(=O)(=O)c2ccc(Br)cc2)cc2c(=O)n3ccccc3nc2n1Cc1ccccc1` the Potency was inconclusive [inhibitor, partial curve].
For `CC(C)NC(=S)NC(c1ccccc1)(c1ccccc1)c1ccccc1`, the Potency was inconclusive [inhibitor, full curve].
`O/N=C(/c1ccc(F)cc1)C1CC1c1c(F)cccc1Cl` (configuration not stated) was tested, and the Potency was inconclusive [inhibitor, partial curve].
`CN(c1ccccc1)c1nc(N)c([N+](=O)[O-])c(N2CCCCC2)n1` was tested, and the Potency was inconclusive [inhibitor, partial curve, poor fit].
`COc1ccccc1C1=CC(=O)C[C@H](c2ccc3c(c2)OCO3)C1` was tested, and the Potency was inconclusive [inhibitor, full curve, poor fit].
With `CN(C)CCCN1C(=O)C(=O)/C(=C(/O)c2ccncc2)C1c1ccccc1` (configuration not stated) the Potency was inconclusive [inhibitor, single point].
`C=CCn1c(CNC(=O)c2ccccc2F)nnc1SCc1nc2ccccc2c(=O)[nH]1` was tested, and the Potency was inconclusive [inhibitor, partial curve].
In the case of `COc1ccc(NC(=O)/C=C/c2cc(Br)ccc2OC)cc1`, the Potency is reported as inconclusive [inhibitor, partial curve].
With `COC(=O)C1=CN(C(C)C)C=C(C(=O)OC)C1c1cc2c(cc1Br)OCO2` the Potency was inconclusive [inhibitor, single point].
With `O=C(NCCCc1ccccc1)c1ccc(F)cc1` the “activity, negative = inhibition” value was inactive: 7.99%.
`COc1cccc(Cn2c(C(C)n3c(-c4cnccn4)nc4ccccc43)nc3ccccc32)c1` (configuration not stated) was tested, and the Potency was inconclusive [inhibitor, partial curve].
`O=C(O)C(Cc1c[nH]c2ccccc12)NS(=O)(=O)c1ccc(Cl)c(C(F)(F)F)c1` (configuration not stated) was tested, and the Potency was inconclusive [inhibitor, partial curve].
In the case of `COC(=O)c1cc2c(-c3ccccc3)c(C)c3ccccn3c-2c1C(=O)OC`, the Potency is reported as inconclusive [inhibitor, single point].
For `O=C(c1cc(Cl)ccc1Cl)N1CCc2ccccc21`, the Potency was inconclusive [inhibitor, partial curve].
In the case of `CCN(CC)c1ccc(C=NN2CCCCCC2)cc1`, the “activity, negative = inhibition” value is reported as inactive: 4.45%.
For `O=S1(=O)CCN(C2CCCCCCCCCCC2)CC1`, the Potency was inconclusive [inhibitor, single point].
In the case of `COc1ccc(-c2nnc(SCC(C)C)o2)cc1`, the Potency is reported as inconclusive [inhibitor, single point].
For `O=S(=O)(NCc1ccco1)c1ccc(Cl)cc1Cl`, the Potency was inconclusive [inhibitor, full curve].
`COc1ccc(C(=O)CCc2ccccc2)cc1` was tested, and the Potency was inconclusive [inhibitor, single point].
For `Cc1ccccc1-c1nc(-c2ccccn2)no1`, the “activity, negative = inhibition” value was inactive: 11.5%.
For `CC(C)Oc1cc(F)ccc1-c1cc(C(=O)NCCCn2ccnc2)[nH]n1`, the Potency was inconclusive [inhibitor, full curve].
For `S=C(NCc1ccccn1)Nc1ccc(Cl)cc1`, the “activity, negative = inhibition” value was inactive: -4.06%.
For `C=CCN1C(=O)[C@@H]2Cc3c([nH]c4ccccc34)C(c3ccc(O)cc3)N2C1=S` (some centres not stated), the Potency was inconclusive [inhibitor, partial curve].
`O=C(Nc1csc(Cc2c(Cl)cccc2Cl)n1)NN1CCOCC1` was tested, and the Potency was inconclusive [inhibitor, single point].
With `c1ccc(CCc2cc3ccccc3[nH]2)cc1` the Potency was inconclusive [inhibitor, single point].
`CC(C)CCn1c(Oc2ccc(Cl)cc2)nc2c1c(=O)n(C)c(=O)n2C` was tested, and the Potency was inconclusive [inhibitor, partial curve].
`COc1ccc(CCN(C(=O)/C=C/C(=O)O)C2CC(=O)N(c3ccccc3)C2=O)cc1` (configuration not stated) was tested, and the Potency was inconclusive [inhibitor, single point].
In the case of `Oc1c(Br)cc(Br)cc1C=Nc1cccnc1`, the Potency is reported as inconclusive [inhibitor, partial curve].
For `CC(C)(C)OC(=O)N1CCC(c2cc(=O)n3[nH]cc(C(=O)NC4CCCC4)c3n2)CC1`, the Potency was inconclusive [inhibitor, full curve, poor fit].
For `O=C(O)CNS(=O)(=O)c1ccc2c(c1)C(=O)c1cc(S(=O)(=O)NCC(=O)O)ccc1-2`, the “activity, negative = inhibition” value was inactive: -6.9%.
With `O=c1ccc2c(-c3ccccc3S(=O)(=O)O)c3ccc(O)c(O)c3oc-2c1O` the Potency was inconclusive [inhibitor, partial curve].
In the case of `Cc1cc(C(=O)OCC(=O)Nc2sc3c(c2C#N)CCC(C)C3)c2ccccc2n1` (configuration not stated), the Potency is reported as inconclusive [inhibitor, partial curve].
